# Measured values from the supplement of paper PMC10681739.
# ± gives the standard deviation of the averaged measurements. Over roughly 4,100 sequences, “arbitrary fluorescence units” has its median near 780; the highest 2% begin near 22,000. This is one part of the list.
# Molecular target: T1, ETS1 (UniProt P14921)
# T1 sequence: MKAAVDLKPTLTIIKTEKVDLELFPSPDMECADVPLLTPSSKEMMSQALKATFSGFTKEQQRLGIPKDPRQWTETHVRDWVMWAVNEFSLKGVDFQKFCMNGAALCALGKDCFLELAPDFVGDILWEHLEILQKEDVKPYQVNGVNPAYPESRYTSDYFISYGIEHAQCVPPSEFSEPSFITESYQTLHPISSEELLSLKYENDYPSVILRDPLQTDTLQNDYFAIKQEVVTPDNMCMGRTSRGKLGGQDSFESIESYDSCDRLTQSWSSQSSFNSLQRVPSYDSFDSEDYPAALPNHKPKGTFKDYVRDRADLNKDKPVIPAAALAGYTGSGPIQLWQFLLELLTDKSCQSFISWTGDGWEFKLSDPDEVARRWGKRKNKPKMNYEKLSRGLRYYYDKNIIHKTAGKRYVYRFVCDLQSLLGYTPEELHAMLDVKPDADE
# Assay: ETS1 binding intensity (PBM fluorescence), ETS1 alone (arbitrary fluorescence units); higher = stronger binding
# Conditions: ETS1 concentration 1 nM; RUNX1 concentration 0 nM
# In short: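 Full-length recombinant human ETS1 (1 nM, no RUNX1) was incubated, per standard PBM protocols, on double-stranded Agilent 4 × 180k arrays of 36-bp genomic probes whose RUNX1 partner site was mutated. Bound ETS1 was detected with anti-ETS1 antibody (Cell Signaling Technology 14069) and Alexa488-conjugated secondary antibody, then scanned on a GenePix 4400A. Binding level is spot fluorescence intensity, summarised over replicate spots (four printed per sequence) and not normalised.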
row,Sequence,ETS1 binding intensity
1,CTCACTTCCCCGGCAGCTCCCTCGCCCCGACCCCAG,1000
2,GAAAGCTCAGGCACGGCCGGGCCACCAGGAAAACAC,342
3,ACGTGCACCGGCGGCTTGCGCGATTCCGGCGTTGCA,321
4,CAATCAACCCCAATGTGACCCTACAGGCGGAAAAAA,406
5,TGGGGGCGGAAGCCTAAACCCCTCCCTCAGCCAGTC,922
6,GGACGCCGCCGGAAGCGCGACCTGCACTCCCGGTAG,3560
7,CTAGCCACCTCGGCCCCACCCTCTTCCGGCCTCAGC,1820
8,GTCACGCGCCGGATCCAACCCCCAATCACTTTAGCC,409
9,AACAAGGCTGTAGGTGAACCCCAGCTTCCTGCAAAG,702
10,GTCACAGCTGCAGAGCGCCCGACTTCCCAGAAGGCA,351
11,GGCGCCCGGGAAACTGTGTGGCGCTGCAGGCCGCGC,341
12,GCGGAGCACCTCCCAGAGAGGGAAGGAAATGCCAGC,449
13,CGGCCTCATCCACTCAGCGACCGGAAGGGGGAAGAA,3410
14,AACTACTGCAGCTTCAAAATCCGGATGCGCCGGTAT,766
15,TCCGGAAATAGATAATATCTAGTTAAACCCCAAAAT,2460
16,TTCACGCTCCGTAAGCTCGCTCCTTCCGGGACGCAG,643
17,CCTGCTGCTGTCAGCCCTGTCTCTTCCTGTTTCTGC,1030
18,GGAGTGAACAACCGAAACAGATAGGGAAGTGACACA,353
19,CCAGGCGTTTCCGGGTTCCCGAGGTCCCGTCCCCCA,10500
20,CTGAAGTCACAAAATGACGTCACTTTCCTGCTTTCT,460
21,TTACCCCGGCGGAACGGAGGCCTGCAGTCGCGGCGG,374
22,TACGCTTCTCCGGCCGCCTAACCCGGAAGCGAAACC,1340
23,CGCCTGGTGTCCGGTCCCGGGGCCGAAGGGTCCGGC,2090
24,GGTCACATCCTTTCCCTTCTGTGTCTCAGCCCCAGT,4770
25,CCAGAGGGCGGAAGTGGGAGCTGCGACGGCGCTCCC,7030

row,Sequence,ETS1 binding intensity
1,GCCCGCCCCGGAAGTGCAAACTGTGTGCTCTGGCAG,8350
2,TAAACTGGACCTCGAAGGGAATAGCCGGAACCCGCC,341
3,ATCACTCACCAAAAAAGTCCCTTCACACTTCCTCCC,634
4,TCCTCCACCTCAGAAAGGCAACCGGATCCTACCCGG,378
5,CCCTCGGTGCGTGCGCAGCTCCGACTTCCGGGTGCT,1900
6,CAGTGGCAGGAAGAGGTCAGAATCCACTCTTGGTGG,1820
7,CCCTCTCTTCTTCCTCCCCCACCCCAAAAGTCACAG,631
8,AGCCTCCCGGACGCCGTCGCCCCCTCACACGCCCGC,393
9,TTTCCACTTCCTGTTCTACTTGGGGCTACTGACTCA,25500
10,GGCTTCTTATTGTAGCTTACACTTCCTCAGTAGATG,608
11,AGAAACATCCTGCCCAGCCACCTGACTACAAGGCAC,14600
12,AGAGAGACCAGCGGCTGTTTCCGCCCACTCGTCCCA,1900
13,TAGACCAGTGTGCTCAGCCGCCCCTTCCTAAGCTGC,320
14,CATCCAGGACGGAAACAGCATCCCCACCGAGGGAGC,1600
15,ACTGTGTCTGGTGTTCCATAGAGGAAACTGCAAAGC,491
16,AAAGACCTTGGGGTCCCAACTTCCTTATGTGGACAG,709 ± 55
17,AAGTGAAGAGCTTCCGCCGGGAGACCTCGGCTGCAG,4160
18,CTCAGCGGCAGCAAGCCCCACCCCGGAAGTCGGCTG,1590
19,CCCAGAGTCCGGAATCGCTGCCTGCGCCTTGACACA,392
20,GTCACTGTCGTATTTACTTTAGCTTCCTGTTCATCC,1880
21,TTTACGGGCGGGCGGCGGCGAAGGCGATCCGGCCCG,395
22,TGCCTACGGCCTGGGCTGGGTGTAGCCCCGGAACCT,322
23,TGGGACTGTTGCCACCACCACTTCCTCTCTGCTCTG,1710
24,TGCTCACATCCTCTGCAGCTTTGAGGGTGCCATCAC,4550
25,GACTTCCTGTTGAAGATTGGCCTCTTCGGTAGCACA,44600

row,Sequence,ETS1 binding intensity
1,TGGTCCGTGGCTGATATTTACGGGAAATGGGGCGAG,610
2,ACGTTCGGCCCCGCGCACTCAGCATTTCCGGCTTCG,5240
3,CGGGCCGGATCGCCTTCGCCGCCGCCCGCCCGTAAA,344
4,ATGACCGATCAACCCCAAAGGCCGGAAATGCGTCAG,4020
5,GACAGTTTTCCGGCCTAGTTTACGGCTGCTCCTGCC,5000
6,CTCCGCCAGCGCCCTCAGGACCCGGATGAGAGCGCA,402
7,GTTCTGGGGAGTGCAAAAGCCCAGCAGGAAGCCGCT,465
8,TGGGTCACGGTGGCTGTGAGGGCGGAAGAAAAGGCC,361
9,TATCACATCCTGCCGGACAAAAAGGCCAAAGCACCT,13500
10,GGACCGGAAGTTAAGGCGTTCGCGGCGTGTGATAAG,22900
11,ACTCGCTCCGGCCGCCGCCCCCTCGGAAGCTGCTAG,349
12,ACCTTCGCCGCTGTCCCCAGCCTCTTCCTGTCCCGG,1130
13,TCAATAAGACAGGATGTTCTCCAACCCCATTAAGCT,3260
14,CTTTGTAGGCGCTCCCTGCGTCGCGGAAGTTGGGAG,347
15,CCGGGTAGGATCCGGTTGCCTTTCTGAGGTGGAGGA,2140
16,ACTACAACTTCCGACTTGCATCACTGGGGTGGCGCT,3220
17,GGCAGGAAGGAATGGCGGGAACGGGGCCTGCAGGGC,624
18,GTGGACTGGAGCCCCAAGGGAGGCAGGAAGGAAGGT,618
19,GAAGAGCAAGACCAAGTGAAGGAAACTTCACTAAGT,379
20,TGGCCTCTTCGGCCCTGGCCTTGACTTCCTTTCCTC,362
21,ACGTCATCGCGCAGGGCTGGCGCGTCCGGCGCAGTC,393
22,GCAGATATCACAGACTCTCTCCTTTCCTGCTGAATA,546
23,TTCTTCAGGAAGGCGGGCTTGCGCCGTAGGAGCGGG,315
24,AACTTCCTTCCCGAGAGCCTGAAGCAGCCGTAGGCC,9120
25,AAATCACATTTCCCAGAGTGCACCTCGACGGCAGGG,424

row,Sequence,ETS1 binding intensity
1,GAAGAGACTCCCGCCACCTTGGCCGTTTCCCCTGAT,318
2,TCACGTGGCCGCGCTCCGGTAACGGAAGAAACAAGA,394
3,TGCTGCACCTCGACCTCAGCTACTTCCTGCTCAGGT,3050
4,GATGACTTCCTCAGTTCAGGGCTATGTACGGGGGAG,4670
5,GGGCTTGAACGCCATGTTTGAAGCGGGCGGAAAAAA,289
6,AGATTTATGTGATAAATGGTTTCAGGGAAGTGGTTC,413
7,CCGCTTCCGGGACGCGAATCGCTCTGGGGCTGCGTC,15600
8,GGCTCCAAAACTACAGGGCGGAGGCTTCCGCGCGGC,349
9,TGCGATGCCGAAGTGGCTCAGTGCTTCCTGGCCGAG,407
10,GATGCAGTGTAGTTTAACGGTTTCCTGACTTTGAAG,603 ± 39
11,CTTCGACCCCGGAAGCGCTAACAACCCCGGGGGCCG,4060
12,GGGGAACTCAACGCGCACTAAGAGCGGAACGTGAAC,392
13,CACTGGCAAGGTGGCTTGAGAACTTCCTCTTTCATC,922
14,TCACTAATTGTGAGGGGCCCCAGGATGTGTTTTGGT,369
15,CTCGGCGCCCGCTGTCCATGGACCGGAACCTCGGGC,380
16,AACAGTTGCTTGCTGGATATGCTTCCTTGGATCTGT,390
17,GACGGAGGATGTGTAGTTCTGTCTCCTTACGGCCTC,497
18,CAGCCGACTTCCGGGGTGGGGCTTGCTGCCGCTGAG,19300
19,TTGTTCGCTTCGGCGACCAGCTCCGGAAAGCGCGGC,347
20,ATACCGGCGCATCCGGATTTTGAAGCTGCAGTAGTT,4600
21,CAGCAGTGGATTTGCAGGAGCAGGCTCCATCCGCAG,574
22,ATGGATATAAAGCTCAAACAGGAAGTGATAAAGCAA,5760
23,CAGGGGGCCCCAAATGCCGCTCTTCCTGCCCAGGTC,984
24,GCTCGGAAATACCAATATTGGGCTCTGGTATTTGAA,440
25,CTTGGCGGAAGTGGTGTGGGGGAGGTAGCCCTCAGT,6430

row,Sequence,ETS1 binding intensity
1,ACAACCCGCTCTCTGGCGGGGCTTCCGGTCGGGAGG,6280
2,TTTGTGACTTAACGACACCTACATTTCCCATTTAAG,496
3,TGGGGTTTCCGAGCCGCCCCCGAACTGCGCACCCGA,480
4,TACCGGCGTTAATATAGTAAGGGCGGAAGTTCTCCT,1190
5,GACTGGACAACTTCCTGGTGGAAAAGCGCGACTCTT,7240
6,GGAAAAAAAGCACCCATGCTCCTGGACTTCCCCTTC,322
7,TCGGTGAAGGACGGAAGATGATAGCGACATTTCTTC,428
8,TCTTTAAAACCCGGAAGTTCCTGTCGTTCATACGCT,5970
9,CTGTCAGGATGTTGGCTTGTGAGCCTACAATCCTCT,1170
10,AATCTGTGATTTCCACTGTTAGAATTTACTTCCTCT,627
11,GCCACACCCCCTTCCTGTTGTGTGAGGGGATTCATG,4100
12,CCAGAGCACATCCTACACGCACCCCAACCTGAAAAC,1780
13,TCTTCGGCCCTACCTCAGCCAAGGACTTCCTCAGAA,427
14,AAAAAATGGAGGAAGTTACCTCCAGTGGATTTCTGG,1140
15,GCACTGTGGGAGGAAGTGGGTATGTGCTGAGCTCTT,1530
16,GCTCTGCAGGATGTGGCTGTGAGCGCAGTGAGGAGC,1770
17,CCGCGCCGCTTCCTCCAGACACCTCAAGGGGGTGCT,1650
18,CCACACCTAACGACAGGGGAGGTTGGGAAGTGAAGT,403
19,TCCTCCCTTCGTGGGCGCTTCCTGCGTCGCGAAAGT,1410
20,CAGCCTTGCCGGAAGGCAGAGTTTGGGGTCAGACCG,1140
21,CCATAGCGACCTCGGCCGAGCGAACCGGGAAACGGC,368
22,AATCCTGACCTTAAAAACCTCTGAATGTTTCCTTGT,442
23,ACAACTCCCAGAAGGCATTGGGCGGAACACCACGGT,355
24,TTTAAACCTACAAGCAGGCCCCTGCCCCTTCCTGGA,359
25,AGACCCTGTTGTCACATGGCAGGAAGTCTGCAGGTT,1060
